Data from patent US20250114450A1 (AKESO BIOPHARMA, published 2025).

What was measured:
[1] = target: T1, FcγRI (UniProt P12314 16-288, limits assumed); test: BLI (Fortebio Octet), FcγRI immobilized on HIS1K sensor, antibody 3.12-50 nM, 1:1 fit
T1 construct: construct not described; also called CD64; FcγRIa
Description: 1 μg/mL FcγRIa was immobilized on the HIS1K sensor for 50 s. The sensor was equilibrated in a buffer for 60 s, and the binding of the immobilized CD64 on the sensor to the antibodies at concentrations of 3.12-50 nM (two-fold dilution) was determined for 120 s. The antibody was dissociated in the buffer for 120 s. The sensor was refreshed 4 times in 10 mM glycine pH 1.5, each for 5 s. The detection temperature was 30° C. and the frequency was 0.3 Hz. The data were analyzed by 1:1 model fitting to obtain affinity constants.

[2] = target: T2, C1q (UniProt P02745; P02746; P02747); test: BLI (Fortebio Octet), antibody on FAB2G sensor
T2 construct: the three subunits are from general knowledge; also called serum complement C1q; complement C1q
Description: 50 μg/mL antibody was immobilized on the FAB2G sensor at an immobilization height of about 2.0 nm. […] The antigen and antibody were dissociated in the buffer for 60 s. The sensor was refreshed 4 times in 10 mM glycine pH 1.7, each for 5 s. The shaking speed of the sample plate was 1000 rpm, the temperature was 30° C. and the frequency was 0.6 Hz. The data were analyzed by 1:1 model fitting to obtain affinity constants. The data acquisition software was Fortebio Data Acquisition 7.0, and the data analysis software was Fortebio Data Analysis 7.0.

[3] = target: T3, FcγRIIIa_F158 (UniProt P08637 fragment); test: BLI (Fortebio Octet), FcγRIIIa_F158 on HIS1K sensor
T3 construct: also called hFcGR3A(F158)-his; not shown: his tag
Description: 5 μg/mL FcγRIIIa_F158 was immobilized on the HIS1K sensor for 120 s. The sensor was equilibrated in a buffer for 60 s, and the binding of the immobilized hFcGR3A(F158)-his on the sensor to the antibodies at concentrations of 31.25-500 nM (serial two-fold dilution) was determined for 60 s. The antibody was dissociated in the buffer for 60 s. The sensor was refreshed 4 times in 10 mM glycine pH 1.5, each for 5 s. The detection temperature was 30° C. and the frequency was 0.3 Hz. The data were analyzed by 1:1 model fitting to obtain affinity constants.

C1q, sequence (P02745 23-245 limits assumed, chain 1 of 3): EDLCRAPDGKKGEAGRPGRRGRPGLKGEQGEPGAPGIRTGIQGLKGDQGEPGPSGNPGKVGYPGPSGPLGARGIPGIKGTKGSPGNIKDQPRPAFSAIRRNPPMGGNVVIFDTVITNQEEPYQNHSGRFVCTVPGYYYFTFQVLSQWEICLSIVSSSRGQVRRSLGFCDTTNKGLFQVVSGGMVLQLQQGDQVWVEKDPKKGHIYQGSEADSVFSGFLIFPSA
C1q, sequence (P02746 28-253 limits assumed, chain 2 of 3, further chain): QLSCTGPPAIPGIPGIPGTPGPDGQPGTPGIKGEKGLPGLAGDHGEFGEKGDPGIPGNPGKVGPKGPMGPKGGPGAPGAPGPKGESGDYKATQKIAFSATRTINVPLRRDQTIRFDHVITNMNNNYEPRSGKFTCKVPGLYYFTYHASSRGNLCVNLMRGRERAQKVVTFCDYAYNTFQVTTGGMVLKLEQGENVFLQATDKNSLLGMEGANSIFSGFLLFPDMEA
C1q, sequence (P02747 29-245 limits assumed, chain 3 of 3, further chain): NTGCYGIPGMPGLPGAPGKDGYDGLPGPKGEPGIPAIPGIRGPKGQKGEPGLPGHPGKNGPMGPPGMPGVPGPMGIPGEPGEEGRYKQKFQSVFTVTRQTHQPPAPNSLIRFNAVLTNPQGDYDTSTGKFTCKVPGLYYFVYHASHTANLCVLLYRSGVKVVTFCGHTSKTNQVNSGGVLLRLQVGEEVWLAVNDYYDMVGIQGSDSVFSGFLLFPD
FcγRIIIa_F158, sequence (P08637 17-208 limits assumed): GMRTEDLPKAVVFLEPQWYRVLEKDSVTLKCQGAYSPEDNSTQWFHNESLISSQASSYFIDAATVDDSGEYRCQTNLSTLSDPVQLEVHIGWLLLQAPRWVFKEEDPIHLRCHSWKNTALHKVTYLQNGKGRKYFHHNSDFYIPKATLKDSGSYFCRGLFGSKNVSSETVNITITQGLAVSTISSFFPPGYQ
FcγRI, sequence (P12314 16-288 limits assumed): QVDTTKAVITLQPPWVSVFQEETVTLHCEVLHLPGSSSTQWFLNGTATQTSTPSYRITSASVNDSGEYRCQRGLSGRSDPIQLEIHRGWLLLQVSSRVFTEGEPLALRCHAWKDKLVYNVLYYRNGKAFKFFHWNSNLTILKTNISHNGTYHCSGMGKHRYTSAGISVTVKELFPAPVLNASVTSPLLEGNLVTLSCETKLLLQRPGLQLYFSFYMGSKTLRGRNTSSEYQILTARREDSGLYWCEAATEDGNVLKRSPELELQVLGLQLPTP

B1: VP101(hG4WT) (bispecific antibody, human IgG4 S228P, kappa)
heavy: EVQLVESGGGLVQPGGSLRLSCAASGYTFTNYGMNWVRQAPGKGLEWVGWINTYTGEPTYAADFKRRFTFSLDTSKSTAYLQMNSLRAEDTAVYYCAKYPHYYGSSHWYFDVWGQGTLVTVSSASTKGPSVFPLAPCSRSTSESTAALGCLVKDYFPEPVTVSWNSGALTSGVHTFPAVLQSSGLYSLSSVVTVPSSSLGTKTYTCNVDHKPSNTKVDKRV[sequence of human IgG4 Fc with S228P (EU numbers) omitted]GGGGSGGGGSGGGGSGGGGSEVQLVESGGGLVQPGGSLRLSCAASGFAFSSYDMSWVRQAPGKGLDWVATISGGGRYTYYPDSVKGRFTISRDNSKNNLYLQMNSLRAEDTALYYCANRYGEAWFAYWGQGTLVTVSSGGGGSGGGGSGGGGSGGGGSDIQMTQSPSSMSASVGDRVTFTCRASQDINTYLSWFQQKPGKSPKTLIYRANRLVSGVPSRFSGSGSGQDYTLTISSLQPEDMATYYCLQYDEFPLTFGAGTKLELKR
light: DIQMTQSPSSLSASVGDRVTITCSASQDISNYLNWYQQKPGKAPKVLIYFTSSLHSGVPSRFSGSGSGTDFTLTISSLQPEDFATYYCQQYSTVPWTFGQGTKVEIKRTVAAPSVFIFPPSDEQLKSGTASVVCLLNNFYPREAKVQWKVDNALQSGNSQESVTEQDSKDSTYSLSSTLTLSKADYEKHKVYACEVTHQGLSSPVTKSFNRGEC
notes: IgG-scFv (Morrison form), Ig gamma-4 constant region (P01861.1 as stated); also called VP101(G4M)
Kd [1]: 8.52 nM
binding result [2]: no binding (tested: C1q 0.625-10 nM)
binding result [3]: no binding (tested: antibody 31.25-500 nM)
